In patent US20240252670A1, “ANTIBODY DRUG CONJUGATE, PREPARATION METHOD THEREFOR AND APPLICATION THEREOF” (TSINGHUA UNIVERSITY, priority 2021, published 2024):

Assays:
MC38 tumor = assay: Anti-tumor activity and survival in MC38 mouse tumor model; format: in vivo
Excerpt: (§1) A. Treatment with ADC HE-S2, single administration of anti-PD-L1 antibody, D18, or anti-PD-L1 THIOMAB, and anti-PD-L1 antibody/D18 combined administration for inhibitory activity against mouse MC38 tumor growth. B. Whole animal survival study. The ordinate of the curve represents the percentage of tumor-bearing mice that remained alive after different days, and the abscissa thereof represents the number of experimental days. C. Treatment with ADC HE-S2, single administration of anti-PD-L1 antibody, D18, or anti-PD-L1 THIOMAB, and anti-PD-L1 antibody/D18 combined administration for inhibitory activity against mouse MC38 tumor growth. Student's t test was used to compare significant differences between the groups, and p<0.001 is represented by ***.
To verify the anti-cancer activity of ADC HE-S2, the inventors first made a mouse model with MC38. After the tumor was loaded, a visible tumor could be observed on the mouse surface for about one week. When the mean tumor tissue volume of the mice reached 100 mm^3, the mice were randomly grouped as follows according to the final type of drug administered: IgG isotype control antibody group (abbreviated as IgG), anti-PD-L1 antibody group (anti-PD-L1), anti-PD-L1 THIOMAB group (Thiomab), D18 group (D18), D18/anti-PD-L1 antibody combination treatment group (anti-PD-L1 & D18), and ADC HE-S2 group (ADC HE-S2), with 7-8 mice per group. The IgG isotype control antibody group, the anti-PD-L1 antibody (i.e., avelumab as described in Example 2) group, and the anti-PD-L1 THIOMAB (i.e., mutant antibody prepared in Example 2) group were administered twice a week via intraperitoneal injection of 150 μg per mouse for each time. The D18 group was administered twice a week via intraperitoneal injection of 25 μg per mouse for each time. […]

B16 melanoma = assay: Anti-tumor activity in B16 melanoma mouse model; format: in vivo; settings: B16 mice
Excerpt: as §1
B16 melanoma is a tumor with low PD-L1 level and certain drug resistance to PD-1/PD-L1 blocking treatment. As a result, as expected by the inventors, the inhibitory effect of each drug on B16 melanoma was reduced relative to the MC38 tumor.
Dosage: Antibody drugs, administered 150 μg per mouse for each time, and D18, administered 25 μg per mouse for each time. - means no administration on the day. * Only mice with MC38 tumor model were allowed to be administered until the 24th day, and mice with B16 tumor model were no longer administered after the 21st day.

[1] = Effect of drug treatment on body weight of healthy mice; format: in vivo, mouse
Description: Mice were treated with ADC HE-S2, anti-PD-L1 antibody+D18 in combination, anti-PD-L1 antibody alone, D18 alone, and isotype IgG, and their body weight variations were recorded. The time of administration for each drug is indicated by the arrow. Student's t test was used to compare significance differences between groups, wherein p<0.05 is represented by *. p<0.01 is represented by **, and no significance difference is represented by ns.
Then, the inventors examined the effect of each group of drug treatment on the body weight of mice in a mouse model to determine the toxic and side effects of the drugs used, and the results are shown in FIG. 17. Healthy mice were divided into an ADC group, an anti-PD-L1 antibody+D18 group, an anti-PD-L1 antibody group, a D18 group and an IgG group according to the administration, with 5 mice per group. The mode and dose of administration for each group of mice were the same as those in the mouse tumor model experiment: in the ADC group, ADC HE-S2 was dosed once a week, and the anti-PD-L1 antibody was […], 150 μg for each time; D18 was dosed once a week, 25 μg for each time; the anti-PD-L1 antibody and the IgG isotype antibody were dosed twice a week, 150 μg for each time.

[2] = biological target: T1, PD-L1 on MC38 cell surfaces (Mus musculus, UniProt Q9EP73); assay: FACS detection of antigen-binding capacity on PD-L1 positive MC38 cells (FITC secondary antibody)
T1 construct: endogenous in cells; host or cells: MC38 cells
T1 sequence (Q9EP73 19-290): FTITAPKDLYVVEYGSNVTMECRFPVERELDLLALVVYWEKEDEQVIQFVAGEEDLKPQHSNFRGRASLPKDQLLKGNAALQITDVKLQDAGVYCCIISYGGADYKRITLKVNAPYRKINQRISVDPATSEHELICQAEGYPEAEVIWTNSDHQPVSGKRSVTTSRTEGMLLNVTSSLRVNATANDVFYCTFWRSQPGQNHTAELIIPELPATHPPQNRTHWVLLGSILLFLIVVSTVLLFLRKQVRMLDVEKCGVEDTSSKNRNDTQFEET
Description: MC38 cells were treated with anti-PD-L1 antibody, anti-PD-L1 THIOMAB and ADC HE-S2, and then stained with FITC-labeled goat anti-human secondary antibody; the FITC signal intensity on MC38 surfaces was analyzed by FACS technique detection. A. The histograms of different colors represent, from top to bottom, the fluorescence signals measured for the negative control (NC) group, the secondary antibody group, the anti-PD-L1 antibody group, the anti-PD-L1 THIOMAB group, and the ADC HE-S2 group, respectively. B. Mean fluorescence intensity (MFI) measured after treatment with different antibody-based drugs on MC38. NC group: the negative control only added with the isotype antibody, with no secondary antibody added for staining; secondary antibody group: the control group added with the isotype antibody and stained with fluorescent secondary antibody. […]
With PD-L1 positive MC38 as a platform, the inventors verified whether ADC HE-S2 and the gene-modified anti-PD-L1 THIOMAB retained the original antibody-antigen binding capacity by using a fluorescence activated cell sorting (FACS) technique. […] The stained MC38 cells were analyzed on a BD FACSAria™ III flow cytometer, and the strength of FITC fluorescence signals on MC38 cells treated with different antibody-based drugs was detected and compared, so as to characterize the affinity of ADC, THIOMAB and antibodies to PD-L1.

B1: ADC HE-S2 (conjugate)
heavy: EVQLLESGGGLVQPGGSLRLSCAASGFTFSSYIMMWVRQAPGKGLEWVSSIYPSGGITFYADTVKGRFTISRDNSKNTLYLQMNSLRAEDTAVYYCARIKLGTVTTVNYWGQGTLVTVSS[sequence of human IgG1 constant region omitted]
light: QSALTQPASVSGSPGQSITISCTGTSSDVGGYNYVSWYQQHPGKAPKLMIYDVSNRPSGVSNRFSGSKSGNTASLTISGLQAEDEADYYCSSYTSSSTRVFGTGTKVTVLGQPKANPTVTLFPPSSEELQANKATLVCLISDFYPGAVTVAWKADGSPVKAGVETTKPSKQSNNKYAASSYLSLTPEQWKSHRSYSCQVTHEGSTCEKTVAPTECS
Q: For B1, which “inhibitory activity against MC38 tumor growth” value (MC38 tumor; MC38 mice, i.p., antibody drugs 150 μg per mouse, D18 25 μg per mouse, schedule Table 1) is on record?
A: The value was “significantly superior to that of the combination treatment group”.

Q: And the “tumors in the last alive mice” value (MC38 tumor; day 70)?
A: The value was “barely detectable”.

Q: And the “survival rate of mice” value (MC38 tumor; until day 70)?
A: Its value is 6/8.

Q: And the “inhibitory effect on B16 melanoma” value (B16 melanoma; i.p., antibody drugs 150 μg, D18 25 μg per mouse, dosing to day 21)?
A: Its value is “some tumor inhibitory effect”.

Q: And the “growth rate of B16 tumors compared to the combination treatment” value (B16 melanoma; p<0.05)?
A: Its value is “significantly slow down”.

Q: What about the “final change in body weight compared with the control group” value ([1]; after administration) of the same molecule?
A: The value was “not significantly different from that in the control group”.

Q: What about the “body weight change of the mice after administration” value ([1]; antibody drugs 150 μg, D18 25 μg per dose) of the same molecule?
A: The value was “certain drop in body weight”.

Q: What about the “body weight loss relative to the administration of D18 alone” value ([1]; p<0.05) of the same molecule?
A: Its value is “significantly less than that of the D18 group”.

Q: And the “MFI compared with the natural anti-PD-L1 antibody (Student's t test)” value [2]?
A: The value was “no significant difference”.
